Reference: patent US20090075291A1 (RESEARCH FOUNDATION OF STATE UNIVERSITY OF NEW YORK, published 2009)

Molecular target: T1, Cx43 from rat heart lysate (rat, UniProt P08050 2-382)
T1 construct: Native protein pulled down from a tissue lysate; also called cardiac Cx43
Test: GST pulldown from rat heart lysate on glutathione beads, western blot with anti-Cx43 antibody
Description: FIG. 11 is a western blot for Cx43. Glutathione beads fused to NL.RXPE (“GST-NL.RXPE”) or RXPE (“GST-RXPE”), and glutathione beads alone (“GST”), with (“+”) or without (“−”) exposure to heart lysate, were run on SDS-PAGE, transferred to a nitrocellulose membrane, and probed with an antibody for Cx43. Cx43 was not recovered when GST alone was used as bait.
cDNA coding for […] (SEQ ID NO:11) (“NL.RXPE”) was cloned in-frame with the cDNA for glutathione S-transferase (“GST”). The resulting fusion protein, GST-NL.RXPE was produced in bacteria, and purified by conventional methods. GST-NL.RXPE was bound to glutathione beads and exposed to a rat heart lysate. After washing of the supernatant, the pellets were heated to separate the proteins from the beads. Two additional proteins were produced in parallel, and used as control: GST alone (not fused to any peptide) and GST fused to RXPE. After exposure to heart lysate, the resulting complexes that were “fished out” by the bait proteins were run on SDS-PAGE, transferred to a nitrocellulose membrane, and probed with an antibody for Cx43. […] It is expected that other peptides of formula A-Aₙ interact with Cx43, and may be used in the methods of the present invention.

T1 sequence (P08050 2-382 limits assumed): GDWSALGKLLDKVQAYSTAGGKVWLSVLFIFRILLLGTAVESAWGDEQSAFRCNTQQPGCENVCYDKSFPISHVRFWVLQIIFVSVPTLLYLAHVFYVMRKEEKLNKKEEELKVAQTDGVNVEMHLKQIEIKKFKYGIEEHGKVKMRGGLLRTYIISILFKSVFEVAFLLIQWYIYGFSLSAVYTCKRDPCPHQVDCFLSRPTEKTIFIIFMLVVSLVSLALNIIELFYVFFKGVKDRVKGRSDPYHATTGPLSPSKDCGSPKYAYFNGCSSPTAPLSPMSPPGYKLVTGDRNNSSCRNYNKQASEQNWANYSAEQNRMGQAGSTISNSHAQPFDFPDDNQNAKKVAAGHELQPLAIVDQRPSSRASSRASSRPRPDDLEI

B1: GST alone (not fused to any peptide) (other)
chain: not shown
notes: Control bait on glutathione beads
- binding result: no binding
